Measurements as given in paper PMC10726135.
The other results are listed elsewhere or left out. At the low end of the ranking the order means little. Measured with an extract: partners may take part in the binding.

The sequences below were run against T1, HNF4alpha2 (COS-7 nuclear extract) (UniProt P41235) (assay: protein-binding microarray). Details: COS-7 nuclear extract on double-stranded Agilent 4x180k PBM; binding buffer, salt, pH and temperature not given; high values mean tight binding; double strand, one strand shown; sequences stand for … in …GCCTAGGGAGATTAGAGTATCGGTCGA.
T1 sequence: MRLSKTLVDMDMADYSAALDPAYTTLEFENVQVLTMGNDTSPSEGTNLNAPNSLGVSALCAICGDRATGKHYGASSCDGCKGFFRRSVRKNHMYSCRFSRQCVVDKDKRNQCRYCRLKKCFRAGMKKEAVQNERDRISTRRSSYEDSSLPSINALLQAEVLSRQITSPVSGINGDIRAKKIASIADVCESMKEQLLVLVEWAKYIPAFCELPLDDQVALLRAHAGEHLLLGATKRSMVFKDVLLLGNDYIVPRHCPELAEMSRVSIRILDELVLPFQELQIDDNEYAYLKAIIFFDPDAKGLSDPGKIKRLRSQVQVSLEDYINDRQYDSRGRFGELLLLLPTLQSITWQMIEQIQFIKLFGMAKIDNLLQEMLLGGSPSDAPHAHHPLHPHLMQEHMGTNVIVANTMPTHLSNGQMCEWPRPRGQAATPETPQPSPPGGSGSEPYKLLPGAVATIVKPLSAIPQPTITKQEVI

Sequence	binding signal (log2 normalized intensity)
GTAACCTTTGGCCAATTGCATTTTTGTTCC	2.66
TCGTGGCCCCTGGGTCGTTGGTGCTCCCCC	4.21
TGGGCTCTGACCCGAAGGGTAGGAGAAGCT	-1.16
GGAATGACCTTTGATATTTGTGCCTAGTGG	4.8
ATCGGAGAACGTTCCAAACCTACACAGACC	-1.22
AGGCATCTCTGGGGGTCAGAAGTCCAACAT	5.1
TGATCTTAAGATGATATAGCTGTTCATTAG	1.12
AGAAATAGCCTGAAAATGTTTGCCGACCTC	1.5
TTGACCACAGTTATCTCCCCAGCTTACAAT	2.06
CTTTGTATAAGCCGTGCAAAGTTCATCCCT	3.24
ATTTCACAAATGAGGGGACAAAGTTCGTGG	3.66
AAGGCCCAGCTAGAAGCAGTGGGACAAAGG	0.86
ATCGCACGAGCAAGTTTATTCCAAGACTCG	-1.02
CTGGCAAATGTGAATGGACTCTGCCCTTAG	6.01
TGTAATACACAAGCAATAGGGTTCGGTGCA	-0.927
GTACGGAGGACAGCCACCCGTGCTTGGAAT	-0.853
CTCCCTCCCCACCCGGTGTGCGTGGGTGGG	2.04
GCTCAGCTGGTTGCCCCTTTGACCCTCGGG	6.11
CATTCAGCAACTGGGTTCAGTTACGGGGTG	0.99
TACTTTTCAAATGTAAGAATTTAAACCAAA	0.0182
TTCAAAAGAGAGAGTAGCTCCAAAAGGTGG	-1.11
TATGGCAACCTTTGTCCTGCTGAGGAGGCA	2.36
TCCCCACCATTAACCCTACAGTCCTGCCAC	2.12
ATCCTGTCTCCTTTAACCTTCATTCATATC	1.79
TTAGCTTCCTCCCTTGGAATGTGACCTTAG	4.12

Sequence	binding signal (log2 normalized intensity)
TGGACTTTGTGGGCCAAAAGCAGCCATTAA	0.36
TTTCAAGCAATGTTTGCCTCTCAGCTCATT	-1.17
AATGATCAAAGAGACACAATCCCTAAGGCC	-1.09
AAGAGCAAAGGACCAAAAGATATTTGCTGC	-1.27
ACTTCTGTCTCCAGAAATCAACCTTTGATC	7.84
TCTACTTGTTAGTAATCGATGTCCATGAAG	1.95
AGCAAAGGTCATCCTGGGCTACCGATATGA	0.737
ATCTTTGACCTCTCCAGGGTCCTTGCCTTA	1.9
TCTTGGCTGCTTTAGACATGAGATAGCATT	0.558
TCAGAGGCTAAACCTAGCCCCCTTTCCCTT	3.42
GGCCACTCCGTTTGCTATGGCCTTTCTTCA	-0.817
AGGCCATCCACATTCTTTGGCTCAGGGCCT	-1.15
CCTGGCCGAGGTTGCCCAGCTATTAAATGG	-0.945
TTCACCGGAGATTTACATTCCAGAGTAAAC	-1.08
TATCTTCGTATAGAAACAAGACAGAATGAT	-0.775
ACTGAATATGTTCGGGAGACATGTGGCCTT	1.94
GCAGGGCTTTTCCATTGACAGTCCAAGGAC	-1.16
GATAAGTCCCTAAGAGGAATAGTCAGATTG	-1.24
TTGCCTGATAGCATCGTGGGTATTTGGGGA	0.618
TTACTGGACTTGATCCATTCTACCCCTGTG	2.73
TAGCTCACAGGAAAGGAGACTAAAGGTCAA	4.08
CAGCCCAGCATACCATTCCCACCCCATTTC	3.52
ACACAGTTGCCTATGCCCTTTGAAATTCTG	1.68
AAAAGCCTTTTGAAGAAACCAACCCTGCCA	-1.14
TTCCTGTTAGATAGAGGAGTCAAGCAAACA	-0.768

Sequence	binding signal (log2 normalized intensity)
AACCCCTAGGTCAGCAGTTGTTCAAAGTCC	4.6
ACTGTATCTTATCAGAAACACACCCTTGGG	-1.1
AGTGCATAGCTAAGCACCCAGATAAGTTAT	-1.09
TTGGATTTTAAAAGCCCTCAAATACTCTGA	-1.14
CGGTGAGGGATTGTTTAGGTACAAAGTCCA	8.35
TCTGCTCTTGAACCAGAGAATCTCTCATTT	-1.2
TCAAGACAGGTGAGAGAGCTGCATTGCTTC	-1.05
TTACTTATGTTGTCCGGACACCAACCTTTG	2.54
TCTATCTCCCTACCCTCACCCCTGCTGGGG	1.92
GTCACGTGGGTCCAGGGTCACGTGCCGCTG	0.405
CTGAACCTTGTCCCACTCTTGGGTCAACAT	2.03
CTACAGCCTGATGTTGACAGAGCTCCCATC	-1.11
AAAGTCAACACTTAGGGTGGATACTTTGAC	0.0169
CACAGTGTTATTTGCTGAGGTGGGGGAGGT	0.53
AGTACCTCTCAAAAATCTCACTCACCCTAA	-0.279
AGATAGCTGTTAAATGGAGTGGAATTTGGA	2.77
GGTATGTTAGATTAGTGTGCAGCTTTGTGT	2.1
AGGAATATTAGTTTAACTCCTAGGTAATTT	-0.854
TTAAGCAGATGTTTCTGCAAGCACACTGTC	-1.16
TCTACACTGCTTACCCTGCAGTGTGACCTT	4.19
CTGGTCGACCTCCCCGTCACCCTCCCCGCC	6
TTGACCACCTACTGTTTGTGCAGAGGAGAT	-0.991
CAAGAGGCTTCTTATCAGCAGCTGGGGTGA	0.844
GATAAGGATGGATCAAAGGAAACTGCTTGG	-0.885
GGCTCAGGTAAAGGCATGCTTGGCATCCCT	-0.899

Sequence	binding signal (log2 normalized intensity)
GGCCAAATCAGAACTGAGTTACTTGTGCTA	-1.04
AAACCATCCCAGGCATCCAGGCCAGTGGGG	-1.07
CTCCCCCTCCTGCCCTATGTCCTCCAGCTC	3.62
TGCTGGGGGCTGGGCCCCACAGTGCATCTG	-1.04
TGTGTTGCACTGTTTGCATAAAGTTAAACT	0.214
CATCACACTCCTACCCATTCTTCAGAGGCA	-1.1
CTTAAGTCTGAATTCTAGTCCTATCACTGT	0.367
TAGTACTCTGCCATGTGCTATTCTGTCTCC	1.22
TCCATTCTCACTGACTCACGGCAGCTTGTA	-0.764
ACCTCCACCAGATAGCAAGGAGACATCGCT	-1.23
CAAGAATTGGAACCCTGCTGTCCATAGACA	-1.17
AGATGCCAGGAGAGCCGAAGCAGTCAAATG	-1.21
TGACCCTTGCACTGTAAGATCAAGATTAAG	2.81
AAGAAAAAACAAAAAGATGGTCTTACAACA	-0.887
ACCGAGCAGCTCTTTACAAAGCCCATGCTG	-1.21
TGGACCATTGCTGACCTTGCCTCTGTGCTC	1.75
GGAAGTCCAGCATTCTTTTCCCCATACCAG	1.33
TTTCTTTGTACTGCTTCCAAAACATTGTAG	0.777
GAGGCTGAAGTGAAGTTACAAAGGTCACAC	5.43
CTCTCCACCCCCATGCAAGTTCCCACAGAG	4.51
CCTGATAATGACTCTTGAACCACAGTCCCC	1.03
ACAGTAACCCTTGAGCTCTGCACAGCACAA	-1.04
AGATCAGATGGGGTGAACTTTGGACCACAT	7.41
GAGGGGTCTGAGCACATCACACAGGCATAT	-1.11
GCACCAGAGCAGGACTGATATCCTGGGCTT	-1.06

Sequence	binding signal (log2 normalized intensity)
AGGTGGAGACCTCTGCAGGAGGACTGGATC	-1.18
CAACTATAGAAAGCCTTTGAACTGTGTTGC	1.75
TTGCTGGTCAAGCTAAGCACAACTGATTCT	-1.01
ATTCACATCTCCAGTTCCAAAGTCCAGGTG	5.67
CCTGTTTACAATGGAAAGATTAGGTCAAAG	1.05
AGCCTGAGGCAGTTGGAAAATATTTCTCTG	-1.14
TTCAGCTAGCTGAGTGAGTAGGTTCTCAGC	-1.1
CCCCCACCACAAAGCAGTGAGTGAAACATC	2.35
AGGAACCTGTTTTACAGGACATAGTCCTCT	0.24
GGGGCCACCTTTTCAGCTTCCTCCTGCGTC	-1.1
GCCCCCAGCCAGGCCCCAGGCCAACCGGTT	4.96
GCCTGTGACAAAGTCCATCTGGGCAAGGTG	3.4
ACCTTCCATTACCACATTCTCACCACTAGG	-1.06
AAACATAGAAAGGAGTACACACCATAAGAG	-1.08
CAGGGTCCAACCCACAGGGGTAGAAGCTGA	-1.02
CTGAGGAAAGGAAGATGCACATTCCCTCCA	-1.13
ATTTATTAACTGGAGATAACACAACCCCTA	2.45
TACCCTGAGGGACTCACTATCTTGAGGCTG	-1.09
GTAACAGTTGCAGCTTCAGGAGCTGCAGGG	-0.981
AAAAGTCTACCTTTGGCCTGGGGATTTACT	0.82
GAATGCGCTTTCATGAGATGAAAGCTTCTG	-1.15
GTCCTTCCCCCGCCAGATGTTTTTACCCTG	2.69
TGCCTTATCTGGTTCAAAGGTCATTTCTGC	6.58
ATAAAAGAGAAGATAATGGATTGGGGGCCA	-1.19
GCAAACCTCCCCAGCCCAGGTGGCTGCATC	-0.00436

Sequence	binding signal (log2 normalized intensity)
GAAGTGGGGTAAGCAAGGCTCTTAGCAGAA	-1.18
AGATCTCAAAGTCCAAATAGCGCTAACTCT	2.59
GACATGTTTCTAACTGCCCGCATTCTGTTC	1.58
TAAGGAGCTGAGTCATAGTGGACTTTGCCT	6.9
AGCTGCAAAGGCACAGATCATATGGCCCAC	-1.17
TAATCTCAAAGTGTCAGTCCAGAGTTTGTG	1.74
CATGCACCTGCGGATAATCAAAGGTTGGTC	1.73
TTCAAAGGCTCCCCTAATCCCTGTGACATT	2.22
CTAAAGGCTGTGTCGGTATAAGTTCTACAT	0.443
AAGGCAGGAGAATCGCTTGAACCCAGGGGA	-0.996
GGGCTCTCAGAATCTGCCGATCACTGGCCC	-1.04
TCTGTCCTTTGTCCCACATCTGTGAAGATA	1.6
TTTTGCCTTGCATCAGAATCTGGACAGTGT	1.67
CGGCCGCTCCCTCCCCTCCTCCCTTGCTCA	4.16
AGGCCCCAGCCACGCCCTCTAACCCAGGTT	3.08
GTCAGTCATACAGAGCTGTCACGCAGTGTT	-0.423
CGGACGTGTTCCCACAGTGCCCTCTATTGG	2.35
TTGCAACCAAAGGAGTCCTGGCTGACAGAT	-0.806
GCCTAACTTTGATAGGCACAATCAGCAAAC	-1.17
GGGGATGAAGGGGGCGGGGGCGAAAGGGAG	-1.05
